Test results from PubChem BioAssay AID2675 (National Center for Advancing Translational Sciences (NCATS), 2010).
Screen size: about 280,000 compounds; about 100 (0.036%) were called active. The shares of active, inactive and inconclusive entries below differ from those in the screen. Calls come from the whole dose curve; as a rule, active = well fitted inhibition curve with a large enough effect in the signal ratio, with a control signal flat (not every such curve was filed as active); inconclusive = small, poorly fitted or top-dose-only effect, or effect the other way, or a change in a side signal; inactive = no such curve, though single readings can be large or run the other way; the % refers to the signal ratio. Potencies of inconclusive entries are doubtful fits and often do not repeat. A note “side channel” means that the fit belongs to a control or component signal, not to the main read-out.

target: Muscleblind-like protein 1 (Homo sapiens) (UniProt Q9NR56); assay: qHTS Assay for Inhibitors of MBNL1-poly(CUG) RNA binding; conditions: TR-FRET MBNL1-His/biotin-(CUG)12 binding, 665/545 ratio; activity change, negative = inhibition: at 57.5 µM (top of the series)
Sequence of UniProt Q9NR56 (Q9NR56 whole entry, looked up): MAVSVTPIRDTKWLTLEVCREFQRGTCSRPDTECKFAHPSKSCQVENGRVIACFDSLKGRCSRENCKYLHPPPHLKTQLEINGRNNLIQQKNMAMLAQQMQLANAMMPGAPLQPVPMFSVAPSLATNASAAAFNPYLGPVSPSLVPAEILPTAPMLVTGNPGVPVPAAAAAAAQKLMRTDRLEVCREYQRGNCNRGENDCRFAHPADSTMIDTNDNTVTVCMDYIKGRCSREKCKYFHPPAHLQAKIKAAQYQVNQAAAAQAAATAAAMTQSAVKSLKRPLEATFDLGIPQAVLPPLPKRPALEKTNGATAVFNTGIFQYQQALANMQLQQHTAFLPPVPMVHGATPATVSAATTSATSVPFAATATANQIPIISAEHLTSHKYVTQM
Method in brief: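 Compound titration spanned 92 nM–58 uM against the MBNL1-His/biotin-(CUG)12 complex. After 60 min at room temperature with 5 nM streptavidin-XL665 and 0.055 ng/ul terbium anti-His, ratiometric 665/545 nm emission (Ex 340 nm) normalized to controls.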
% is set by controls: 0 for no effect and ±100 for the full control effect; potency is the fitted concentration of half-maximal effect; tags give direction and shape of the fitted curve or compound fluorescence and quenching.

SMILES | Potency | activity change, negative = inhibition
Cc1ccccc1-c1nc(CN2CCC(C(=O)N3CCC(C(N)=O)CC3)CC2)c(C)o1 | inconclusive: 0.398 µM [quencher, side channel, partial curve, poor fit] | 
CC(=O)C1=C(C)NC(SCC(=O)c2ccc(F)cc2)=C(C#N)C1CC(C)C (configuration not stated) |  | inactive: -9.57%
CCN(CC)CCN1C(=O)C(=O)/C(=C(/O)c2ccc(S(=O)(=O)N3CCOCC3)cc2)C1c1ccc(C(C)C)cc1 (configuration not stated) | inconclusive: 15.8 µM [quencher, side channel, partial curve] | 
Oc1ccccc1CNc1nc2ccccc2n1CCN1CCCCC1 | inconclusive: 2 µM [inhibitor, full curve, poor fit] | 
O=C(CN1CCN(c2ccc([N+](=O)[O-])cc2)CC1)c1ccccc1 | inconclusive: 28.2 µM [quencher, side channel, partial curve] | 
Cc1cccc(-n2c(SCC(=O)Nc3ccc4c(c3)OCO4)nnc2-c2ccoc2C)c1 |  | inactive: 9.34%
COc1ccccc1NC(=O)Nc1nn(C)c2cccc(N(C)C)c12 |  | inactive: -0.867%
C/C(CC(=O)Nc1ccc(N(C)C)cc1)=N\NC(=O)c1ccc(Cl)cc1Cl |  | inactive: 6.43%
O=C1Cc2ccccc2C(=O)N1Cc1ccccc1 | active: 25.1 µM | 
N#CC(C#N)=C/C(C#N)=C(/N)N1CCN(c2ccc(Cl)cc2)CC1 | inconclusive: 39.8 µM [fluorescent, side channel, single point] | 
Nc1c2ccccc2nc2ccccc12 | inconclusive: 10 µM [quencher, partial curve] | 
CC(C)C(=O)Nc1cccc(-c2cnc3ccccc3n2)c1 | inconclusive: 17.8 µM [quencher, side channel, partial curve] | 
Cc1ccccc1NC(=O)c1cc(=O)c2ccccc2o1 | inconclusive: 31.6 µM [quencher, side channel, single point] | 
O=C(Nc1cccc2cccnc12)c1cccc([N+](=O)[O-])c1 |  | inactive: 18.2%
Cc1ccc(OCC(=O)NCc2ccco2)c([N+](=O)[O-])n1 | inconclusive: 28.2 µM [quencher, side channel, single point] | 
COc1ccccc1S(=O)(=O)Cc1ccc(C(=O)NCCN2CCCCCC2)o1 | inconclusive: 7.08 µM [fluorescent, side channel, single point] | 
O=C(/C=C/c1ccc([N+](=O)[O-])cc1)OCc1cnc(-c2ccccc2)o1 | inconclusive: 14.1 µM [quencher, side channel, partial curve] | 
Cc1cc(C)c2c(N)c(C(=O)N/N=C/c3cccnc3)sc2n1 | inconclusive: 11.2 µM [quencher, side channel, partial curve] | 
COCCn1c(=NC(=O)C2COc3ccccc3O2)sc2cc(S(N)(=O)=O)ccc21 (configuration not stated) | inconclusive: 28.2 µM [fluorescent, side channel, single point] | 

SMILES | Potency | activity change, negative = inhibition
COc1cccc2cc(C(=O)C3=C(O)C(=O)N(CCN(C)C)C3c3ccc(F)cc3)oc12 (configuration not stated) | inconclusive: 14.1 µM [quencher, side channel, partial curve] | 
NCCCC[C@@H]1NC(=O)[C@H](CCC(=O)O)NC(=O)c2cc([N+](=O)[O-])cc(I)c2OCC[C@@H](C(N)=O)NC1=O | inconclusive: 12.6 µM [quencher, side channel, partial curve] | 
CCOc1nc(-c2ccccc2)ccc1-c1noc(COc2ccccc2)n1 |  | inactive: 0.246%
COc1ccc(-n2cnc(N)c2C(=O)c2cccc([N+](=O)[O-])c2)cc1 | inconclusive: 14.1 µM [quencher, side channel, partial curve] | 
CCCOc1ccc(N)cc1N | inconclusive: 10 µM [quencher, side channel, partial curve] | 
COc1ccc(CCN(C(=O)C(F)(F)F)C(C(=O)NC2CCCCC2)c2cccs2)cc1 (configuration not stated) | inconclusive: 44.7 µM [fluorescent, side channel, partial curve] | 
O=C(Nc1ccccc1C(=O)NCCN1CCOCC1)c1cccc([N+](=O)[O-])c1 | inconclusive: 25.1 µM [quencher, side channel, partial curve] | 
C/C(=N\NC(=O)COc1ccccc1[N+](=O)[O-])c1cccs1 | inconclusive: 39.8 µM [quencher, single point] | 
COC(=O)c1ccc2c(=O)n3c(nc2c1)SCC(c1ccccc1)=N3 | inconclusive: 25.1 µM [fluorescent, side channel, single point] | 
COc1ccc(/C=C(\NC(=O)c2ccc([N+](=O)[O-])cc2)C(=O)NCCCn2ccnc2)cc1 | inconclusive: 15.8 µM [quencher, side channel, partial curve] | 
O=C(N/N=C/c1ccc(N2CCOCC2)cc1)C1COc2ccccc2O1 (configuration not stated) | inconclusive: 28.2 µM [quencher, side channel, single point] | 
COc1ccc(OC)c(C(=O)CSc2nnc(Cc3cccs3)n2C)c1 | inconclusive: 25.1 µM [quencher, side channel, single point] | 
CC(=O)c1cccc(NC(=O)N2CCCC2C(=O)NCc2ccccc2)c1 (configuration not stated) | inconclusive: 3.16 µM [quencher, single point] | 
COc1ccc(O)c(C(=O)c2cc(C(=O)NCCc3ccccc3)c(=O)n(CCc3ccccc3)c2)c1 | inconclusive: 158 µM [inhibitor, partial curve] | 
O=C(Nc1ccc(F)c([N+](=O)[O-])c1)C1CC(=O)N(Cc2ccccc2)C1 (configuration not stated) | inconclusive: 31.6 µM [quencher, side channel, partial curve] | 
O=Cc1c[nH]c2ccc(S(=O)(=O)N3CCOCC3)cc12 | inconclusive: 20 µM [inhibitor, single point] | 
O=C(NC1CCN(C(=O)c2cccc([N+](=O)[O-])c2)CC1)c1ccccc1 | inconclusive: 22.4 µM [quencher, side channel, partial curve] | 
CCN(CC)C(=O)Cn1c(=O)n(-c2ccccc2)c(=O)c2c3c(sc21)CCC3 |  | inactive: -4.32%
